From the supplement of paper PMC3334620
Whole data set: some 33,000 sequences, median “E-score (-0.5 to 0.5)” near -0.021, cut for the highest 2% near 0.32. This is one part of the list.

target: T1, Zap1 (UniProt P47043); assay: PBM E-score (8-mer binding enrichment) (E-score (-0.5 to 0.5)); higher = stronger / more preferred TF binding; most listed sequences are background and not binding sites; conditions: protein concentration: 200 nM; construct: GST-full length
T1 sequence: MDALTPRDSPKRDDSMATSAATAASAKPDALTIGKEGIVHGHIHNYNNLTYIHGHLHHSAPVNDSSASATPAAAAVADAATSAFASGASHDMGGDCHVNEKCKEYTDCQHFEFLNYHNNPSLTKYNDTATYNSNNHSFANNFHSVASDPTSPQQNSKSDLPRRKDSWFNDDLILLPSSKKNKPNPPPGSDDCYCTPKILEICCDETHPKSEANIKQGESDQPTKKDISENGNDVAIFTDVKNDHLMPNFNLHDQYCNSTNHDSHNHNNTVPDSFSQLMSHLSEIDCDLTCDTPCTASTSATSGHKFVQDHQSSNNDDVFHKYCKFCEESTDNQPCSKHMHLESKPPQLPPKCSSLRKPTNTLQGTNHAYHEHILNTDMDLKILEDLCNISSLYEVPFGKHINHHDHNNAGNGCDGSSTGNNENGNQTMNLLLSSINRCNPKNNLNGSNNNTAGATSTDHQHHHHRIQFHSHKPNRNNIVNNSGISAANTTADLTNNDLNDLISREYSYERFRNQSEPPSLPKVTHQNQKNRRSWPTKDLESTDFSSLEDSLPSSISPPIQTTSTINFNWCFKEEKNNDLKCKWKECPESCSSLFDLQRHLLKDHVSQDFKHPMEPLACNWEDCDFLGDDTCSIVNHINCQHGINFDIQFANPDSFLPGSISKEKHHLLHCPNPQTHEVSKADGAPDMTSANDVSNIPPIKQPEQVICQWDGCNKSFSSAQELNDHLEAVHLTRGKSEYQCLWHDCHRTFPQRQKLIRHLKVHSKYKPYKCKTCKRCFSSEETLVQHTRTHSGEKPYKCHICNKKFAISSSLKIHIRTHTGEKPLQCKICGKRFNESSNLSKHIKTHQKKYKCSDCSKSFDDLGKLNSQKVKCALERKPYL
Method: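 Universal 'all 10-mer' protein binding microarrays (Agilent AMADID 015681) probed with GST-tagged S. cerevisiae TFs (full-length or DBD) made by in vitro transcription/translation (PURExpress), about 100-200 nM. Bound TF was detected with fluorescent anti-GST. Each ungapped 8-mer (which stands for itself and its reverse complement) is scored by the PBM enrichment score (E-score), a modified Wilcoxon-Mann-Whitney statistic from -0.5 to +0.5, computed with the Universal PBM Analysis Suite. Scale: above 0.35 generally sequence-specific binding.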

| Sequence | PBM E-score |
| --- | --- |
| CGCGAGTC | 0.0811 |
| CTAGGACA | -0.156 |
| AAGCTTCA | 0.0817 |
| ACAATACT | 0.172 |
| TGCATAAA | 0.125 |
| AGGACCTC | 0.154 |
| GGTTGTCA | 0.303 |
| AAGACTCT | -0.0702 |
| ACGGGGTA | 0.164 |
| ACTTCGTC | -0.132 |
| AGTTCCGA | 0.0267 |
| GCATTTGA | 0.0882 |
| CCGACTTC | -0.202 |
| AAAATTCC | -0.0327 |
| GTTTCCCA | 0.0656 |
| GATGCGAC | -0.187 |
| CACGAAGC | -0.0938 |
| ACTTGCCT | -0.141 |
| CGCGGCAC | -0.13 |
| GAAACGTA | -0.085 |
| CCGAGGAC | -0.0983 |
| ACAGTCGT | -0.0567 |
| GAACAGCA | -0.127 |
| GTGGCGAA | 0.0832 |
| AAGCGACT | -0.149 |

| Sequence | PBM E-score |
| --- | --- |
| GCTCAACA | 0.0073 |
| ATGACAAC | 0.156 |
| TCAGGAGA | -0.0323 |
| CCGTAACG | 0.0821 |
| ACGGTATA | 0.104 |
| GAGGGAAC | -0.114 |
| GAGGTAAA | 0.199 |
| AACGTGTC | -0.19 |
| GGAGAGCC | -0.28 |
| CCGCTCAC | -0.079 |
| GCTTACAC | -0.14 |
| ACGTTGGG | -0.01 |
| ATCCTGCC | -0.256 |
| GGAACAAC | 0.134 |
| CCGTTTGA | -0.0881 |
| CCGTCTGA | -0.18 |
| ACTTAAGA | 0.0625 |
| GTGCGGCA | -0.127 |
| ACAATAGC | -0.0302 |
| GAAACATA | 0.318 |
| AGGATGTC | -0.208 |
| CGATGACA | -0.0529 |
| CTGGCGGA | -0.209 |
| CTAGCCCA | -0.148 |
| AGTTCAGA | -0.0474 |

| Sequence | PBM E-score |
| --- | --- |
| AGGACCTG | -0.0461 |
| CGCTCACA | -0.0555 |
| ATCAGCTA | -0.0531 |
| ATAGACGA | -0.186 |
| CCATGAAG | -0.00194 |
| GCGCACTA | -0.183 |
| GCGCGCCC | -0.122 |
| AAGTGAAA | 0.0563 |
| ACTATTGC | -0.0494 |
| CTACAACA | -0.0355 |
| AATGCGCC | -0.312 |
| GGAAGGCA | -0.191 |
| CCATTTTA | 0.133 |
| CGTGGCCA | 0.0519 |
| AACTTTCT | 0.102 |
| ATTTCTCC | 0.0117 |
| ATAGTAGC | 0.0528 |
| GGACGGCA | -0.254 |
| CGGATCGC | 0.0251 |
| GTGTGACA | -0.117 |
| AAGCTGAA | -0.0829 |
| ACTTGCCG | -0.199 |
| ATCGAGTG | 0.0271 |
| GGAGCACC | -0.0356 |
| AGTATGGC | -0.195 |

| Sequence | PBM E-score |
| --- | --- |
| CTGACAAC | 0.071 |
| AGGTTTCG | 0.0746 |
| ATCAGGAC | -0.0926 |
| GTCCGCGA | 0.0514 |
| ATCGCCGC | -0.0186 |
| AAGGTGCC | 0.0573 |
| GGCCTCCA | 0.07 |
| GTTGATAA | 0.188 |
| GAGAATGA | 0.0402 |
| ACGGCTTC | -0.241 |
| CTGCAGCC | -0.0712 |
| CGACCACG | -0.0755 |
| ATACAAAT | 0.156 |
| TAATAGCA | 0.0302 |
| ACTGTTGG | -0.153 |
| ATTTCTTA | -0.0462 |
| GCCCCCGA | -0.0626 |
| AGACGAAT | -0.116 |
| AAGCATCG | -0.159 |
| ACCGATCT | -0.122 |
| ATCTTCCG | -0.0467 |
| CGATGAAG | -0.0144 |
| AGAGTCTC | -0.194 |
| CCGCAATC | 0.103 |
| AGGGGATA | -0.0015 |

| Sequence | PBM E-score |
| --- | --- |
| CCTTAACA | 0.116 |
| ATTTAGTG | 0.191 |
| CTACTCCC | -0.175 |
| ATGATATA | 0.0247 |
| AGGTGTAT | 0.00014 |
| ACGGTTAC | 0.411 |
| ATAGCACA | 0.0876 |
| CTTGGGAC | -0.0077 |
| CGTAAACG | -0.252 |
| AAGTCTGT | -0.117 |
| CTACCGTA | 0.142 |
| ACCGTTTC | 0.0929 |
| GACCGCCC | -0.00091 |
| CGGGTTGC | 0.18 |
| AAATAAAC | 0.122 |
| ATACGAAG | 0.00666 |
| CCGACAGC | -0.279 |
| CCCTTTAG | 0.127 |
| CTACTAGA | 0.00676 |
| TAATGCAA | -0.0171 |
| ATCTCTCC | -0.211 |
| AAGACGAA | -0.0651 |
| CAAATATG | -0.047 |
| CTAACCAG | 0.146 |
| GATCAATC | -0.0229 |

| Sequence | PBM E-score |
| --- | --- |
| GCCAACGC | -0.00447 |
| AAACAGGA | 0.155 |
| CCGTAGGA | -0.185 |
| CAGCGCTG | -0.0316 |
| ACATCCGT | 0.00877 |
| ATGGCTGG | -0.17 |
| CCGGGGTC | 0.348 |
| ATCAAGGC | -0.0458 |
| ACGCAACA | 0.114 |
| GATCACCA | 0.188 |
| CTCAGCAC | -0.0316 |
| CACCAGCA | -0.108 |
| AAACGGCC | 0.0324 |
| CGGGTTGA | 0.24 |
| CCTGGAAA | 0.125 |
| GTGGAGAA | -0.145 |
| TACGCGTA | 0.135 |
| CCTTCGCA | -0.144 |
| ACTACGAA | 0.029 |
| GTTCCCTA | -0.0435 |
| GCTACCTA | 0.0243 |
| GTGATGCA | 0.00915 |
| TCTTGTCA | 0.164 |
| TAAATTTA | 0.252 |
| CGATAATA | -0.0489 |

| Sequence | PBM E-score |
| --- | --- |
| GATCACTA | 0.093 |
| AACGTCCG | 0.0175 |
| AGTCCGCA | -0.0314 |
| CGTCCGTC | -0.15 |
| GAGCGGTA | 0.108 |
| CTTCGTCC | -0.273 |
| ACAAAAGA | 0.138 |
| ATGGGTAC | 0.328 |
| TAAAGCGA | 0.0443 |
| AACCATCT | 0.02 |
| AGTTTAGG | -0.0723 |
| CACGATGC | -0.176 |
| CGTTCGAA | 0.0668 |
| AATGCAGA | 0.0881 |
| CCCCTCGC | 0.0553 |
| GGACTACA | 0.0317 |
| GCTGATAA | 0.116 |
| CGGAAAAC | -0.016 |
| CATAGATC | -0.0935 |
| TGGTGTAA | 0.23 |
| CACTCCCA | -0.107 |
| AACTAAAA | 0.255 |
